The list shows a part of the results.

T1: UNK ZnF1-3 (human, UniProt Q9C0B0 31-174)
T1 sequence: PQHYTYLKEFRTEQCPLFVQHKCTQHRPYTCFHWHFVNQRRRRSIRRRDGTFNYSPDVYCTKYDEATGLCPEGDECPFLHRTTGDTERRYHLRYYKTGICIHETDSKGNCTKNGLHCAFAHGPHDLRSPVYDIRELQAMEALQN

B1: chr1:145439819:145439820:+_ENSG00000117289_ENST00000369317|hu_mus|motif|central (ssRNA)
RNA: GGGAGUUCUACAGUCCGACGAUCUUUCUUUGCCUCUUGAGUUGGCUGGCUGGGGCGAUCGAGAAAAGCCUUCACCCAGUAGUCGGCGCAACCAUAUUUUCCUUUAAAGGAUGUUCCCAGGGGCCCUUGAGGAAGCUCGAAGCCCAACAGAGGAUUGAGCAUCA
B2: chr15:44268054:44268055:+_ENSMUSG00000022338_ENSMUST00000060652|mus_mus|FALSE|FALSE (ssRNA)
RNA: GGGAGUUCUACAGUCCGACGAUCGAAAACAUAUUAUUAAUCAGAGGACUCAGAAGAAAGUCCAACAAAACAUUACUUAAAAGUUACAUACAGCAAAAAGUACUCCACAAAAAGCCAGAAAGGACUUCCAAUGGUAGGAAGCAGCAACAGAGGAUUGAGCAUCA
B3: chr18:80415450:80415451:+_ENSMUSG00000057130_ENSMUST00000145963|mus_mus|FALSE|FALSE (ssRNA)
RNA: GGGAGUUCUACAGUCCGACGAUCGUACAUCUUGUUGAAGUCAGGCACUUCUGUAAUAUCCACAAGAUAAAUAACUGCAAAAUUUUUAACCUUUUCGGCGAUGCUGUACAGAACCUCGUCCAUCUUCAUGCAAGUGGGGUCCCACAACAGAGGAUUGAGCAUCA
B4: chr3:10015032:10015033:+_ENSMUSG00000027533_ENSMUST00000029046|mus_mus|mus_mus_mus_hu_True|18_108 (ssRNA)
RNA: GGGAGUUCUACAGUCCGACGAUCGUUGUUGCCAUCACAAGUGAUGAUACAAUCUGGCUUGGCCAUUGCGCCCAUUUUUCGCAAAGCUAUUCCCACUCCUAGCUCCUUCAUGUAUUCCUCAAAGCCGUUGCUGUCCACCAGGCGCAACAGAGGAUUGAGCAUCA
B5: chr2:202488911:202488912:-_ENSG00000155755_ENST00000286196|hu_mus|hu_hu_hu_mus_False|1_58 (ssRNA)
RNA: GGGAGUUCUACAGUCCGACGAUCAUUGAAACAUUUUUCAUAAUCUCCAGUAGCAUUUCAGCAUUAUGUAACAAAAGAUCUAUUACAAAUACAUGUAUCUUAUAAAAAUACACUUAAAAACACGAGUGGGGAGCGCACAAAUACCAACAGAGGAUUGAGCAUCA
B6: chr17:45747064:45747065:+_ENSG00000108424_ENST00000290158|hu_hu|hu_hu_hu_mus_True|58_98 (ssRNA)
RNA: GGGAGUUCUACAGUCCGACGAUCGCCCACAGUCCACGCAGCUGUAUCUCGAACAACUACACUGGGGUCUUUCAUUAAUUCUAUUAGGGUGGGCAUAGCCUGUAUGACUAAUGGUUUCAGUUGAUUAGGCUCUGGUCCUUCCAACAACAGAGGAUUGAGCAUCA

This experiment concerns the target T1, UNK ZnF1-3. Briefly: nsRBNS (natural sequence RNA bind-n-seq); RBNS binding buffer (assumed for nsRBNS): 25 mM Tris pH 7.5, 150 mM KCl, 3 mM MgCl2, 0.01% Triton X-100, 500 ug/ml BSA, 20 U/ml SUPERase-In, 4 C; UNK is unkempt and MSI1 is Musashi-1; names of the RNAs are library labels; protein concentration not given here; high values mean tight binding.
As for B1, the binding signal amounted to 1.1 enrichment R.
The figure for B2 is 1.61 enrichment R; for B3 it is 1.02 enrichment R.
The figure for B4 is 0.753 enrichment R; for B5 it is 1.46 enrichment R; for B6 it is 0.787 enrichment R.

The values are drawn from article PMC12136788.
